Test results published in ChEMBL document CHEMBL4888484, “Replenishing the malaria drug discovery pipeline: Screening and hit evaluation of the MMV Hit Generation Library 1 (HGL1) against asexual blood stage Plasmodium falciparum ,using a nano luciferase reporter read-out” (2022).
Out of some 150,000 compounds screened, about 540 (0.36%) showed an effect of 50% or more. Some of the results follow.

system: Plasmodium falciparum; test: Primary screen in NF54 nanoGlo assay, in single point, at 2uM, 72h; a lower Z score goes with more inhibition; assay type: functional, Erythrocyte; settings: timepoint 72 hour

| SMILES | % Inhibition [%] | Z score |
| --- | --- | --- |
| Cn1ccnc1C1CC(NC(=O)c2cc3c(s2)CCC3)CCO1 (stereo unspecified) | 30 | -4.4 |
| Cc1cc(F)ccc1C(=O)NCc1cc2n(n1)CCN(S(C)(=O)=O)C2 | -3 | 0.65 |
| Cc1ccc(CN2CCC[C@H]2C(=O)O)c2cccnc12 | -13 | 1.64 |
| CCCCN1CCN(C(=O)c2cccc(-c3nccs3)c2)CC1=O | -6 | 0.72 |
| CN(C)C(=O)N(CCN1CCCCC1)[C@H]1CCN(C(=O)c2ccc(Br)o2)C1 | -3 | 0.61 |
| Cn1cc(C2CCN(C(=O)c3cnn4cccnc34)CC2)cn1 | -4 | 0.6 |
| Cc1ccc(NC(=O)[C@H](C)ON=C(N)c2ccc(OCc3ccccc3)cc2)c(F)c1 | 0 | 0.03 |
| O=C1NCCN1CCn1ccc(NC(=O)N2CCC(F)(F)C2)n1 | 3 | -0.63 |
| COc1ccccc1C(=O)Nc1ccc(C2OC(=O)N(Cc3ccc(F)cc3)C2C(=O)Nc2ccc(F)cc2)cc1 (stereo unspecified) | -10 | 1.44 |
| COc1ccc(C(=O)Nc2cccnc2)nn1 | -11 | 1.2 |
| CC1=C[C@@H](CNC(=O)c2ccc(F)cc2)[C@H](C(C)C)C[C@H]1Cc1nnc(-c2ccncc2)o1 | 26 | -2.98 |
| O=C(C1=COCCO1)N1CCC[C@H](c2nc(-c3ccccc3)c[nH]2)C1 | -7 | 0.92 |
| Cc1ccc2c(c1)[nH]c(=O)c1c(C(=O)NCc3cccc(Cl)c3)nnn12 | 0 | 0.09 |
| O=C1COC(=O)N1C1CN(S(=O)(=O)c2cccnc2)C1 | 0 | -0.04 |
| c1ccc(C2(c3nnc([C@@H]4CCCO4)o3)CCOCC2)cc1 | 3 | -0.52 |
| COc1ccc(C(=O)Nc2cc(-c3ccccn3)no2)c(C)c1 | -15 | 2.58 |
| O=C(c1cc(-c2ccc(F)cc2)n[nH]1)N1CC(OCC(F)(F)F)C1 | -13 | 2.08 |
| O=C(NCCc1cccnc1)c1ccn(CC(F)F)n1 | 0 | 0.01 |
| Cc1cccc(C)c1[C@@H]1CCCN1C(=O)Nc1ccc(F)c(-n2nnnc2C)c1 | -1 | 0.06 |
| CC(C)N1C[C@H]2CN(S(=O)(=O)c3ccc(F)c(F)c3)C[C@@]2(C(=O)N2CCCC2)C1 | 2 | -0.27 |
| CC(=O)N1C[C@H]2CN(C(=O)c3cccc(C)c3)C[C@@]2(C(=O)N2CCCC2)C1 | -5 | 0.72 |
| CCc1ccccc1NC(=O)c1cc2n(n1)CCCC2 | -2 | 0.32 |
| CN1C[C@H]2CN(Cc3c[nH]c4ccccc34)CCN2C1=O | 19 | -2.24 |
| CC(CNc1ccccc1)NC(=O)NCC1CCCO1 (stereo unspecified) | -14 | 1.8 |
| COc1ccc(Cl)cc1C(=O)NC1CCN(c2ncnc3c2CCCC3)CC1 | -6 | 0.8 |
| O=C1NCCCN(C(=O)Nc2ccccc2)[C@H]1Cc1ccccc1 | 1 | -0.19 |
| C[C@@H](c1nnnn1C1CCCCC1)N(C)Cc1cccc(N(C)C)c1 | -7 | 1.18 |

| SMILES | % Inhibition [%] | Z score |
| --- | --- | --- |
| CCNC(=O)N1CCN(C(=O)c2ccc3c(c2)ncn3-c2cccc(C)c2)CC1 | -4 | 0.49 |
| Cc1n[nH]c(C(=O)Nc2ccccc2NC2CCC2)c1O | -12 | 2.45 |
| Cc1cc(-c2cc(-c3cnc(N(C)C)s3)c(C#N)c(N)n2)c(C)s1 | -3 | 0.38 |
| CCc1ncc(C(=O)NCc2csc(N3CCOCC3)n2)cn1 | 26 | -3.62 |
| C[C@H]1c2cccn2CCN1CC(=O)Nc1ccc2c(c1)CCC2 | -3 | 0.66 |
| CC(C)(c1ccccc1)c1nnc(NC(=O)N2CCCC2)s1 | -9 | 1.74 |
| Cc1cnc(NC(=O)c2ccccc2C(=O)c2ccc(Br)cc2)s1 | -8 | 0.98 |
| O=C(Cn1cccn1)N1CCN(Cc2ccccc2)[C@@H]2CS(=O)(=O)C[C@@H]21 | -7 | 1.28 |
| COc1ccc(OC)c(-n2c(Cc3ccc(O)cc3)n[nH]c2=O)c1 | 1 | -0.14 |
| O=C1CCCN1CC(=O)N1CCC[C@@]2(CCC(=O)N(CCc3ccccn3)C2)C1 | -4 | 0.9 |
| CC(=O)Nc1cccc(-n2ccnc2-c2c(C)n(C)n(-c3ccccc3)c2=O)c1 | -14 | 1.89 |
| CCCc1cc(C(=O)N2CCNC[C@H]2C(=O)NCc2ccccn2)ccn1 | 1 | -0.22 |
| O=C(O)c1ccc(Cn2cnc3ccccc32)o1 | -4 | 0.48 |
| OCC#Cc1csc(-c2cn(C[C@H]3COc4ccccc4O3)nn2)c1 | 1 | -0.23 |
| COc1ccc(-c2noc(-c3ccc(NCCCN4CCC(C)CC4)nn3)n2)cc1 | 10 | -1.17 |
| COC1CCCCC1NC(=O)NCCCC1CCCCO1 (stereo unspecified) | -6 | 1.11 |
| CC(=O)Nc1c(-c2ccccc2)c(C)nn1-c1ccc(C(=O)Nc2ccc3c(c2)OCO3)cc1 | 8 | -0.98 |
| CC(C)c1ccc(C#N)c(NC[C@H]2CN(C)C(=O)CO2)n1 | -7 | 1.41 |
| Cc1csc(CNC(=O)c2cnccn2)n1 | 0 | 0.08 |
| O=C(N1CCn2c1nc1ccccc12)C1(c2ccccc2)CCOCC1 | -8 | 0.91 |
| COc1cc(CN2C[C@H](CO)[C@H](CN3C[C@@H](C)O[C@@H](C)C3)C2)ccc1F | -2 | 0.44 |
| Cn1cnn(CC(=O)Nc2nnc(-c3cccc4ccccc34)[nH]2)c1=O | 2 | -0.25 |
| CCN(CC(=O)NCc1ccccc1)C1CN(C(=O)OC(C)(C)C)C1 | 5 | -0.86 |
| CCOc1ccncc1S(=O)(=O)N1CCN(Cc2ccncc2)CC1 | -2 | 0.25 |
| Nc1cc2c(cc1N1CCOC1=O)OCO2 | -5 | 0.82 |
| Cn1cc([C@@H]2CNCCN2C(=O)c2csc3ccccc23)cn1 | -11 | 1.48 |
